# The full ranking holds about 33,000 sequences; the median of “E-score (-0.5 to 0.5)” is about -0.043, and the highest 2% start at about 0.37. Some of the results follow.
# Biological target: T1, Upc2 (UniProt Q12151)
# T1 sequence: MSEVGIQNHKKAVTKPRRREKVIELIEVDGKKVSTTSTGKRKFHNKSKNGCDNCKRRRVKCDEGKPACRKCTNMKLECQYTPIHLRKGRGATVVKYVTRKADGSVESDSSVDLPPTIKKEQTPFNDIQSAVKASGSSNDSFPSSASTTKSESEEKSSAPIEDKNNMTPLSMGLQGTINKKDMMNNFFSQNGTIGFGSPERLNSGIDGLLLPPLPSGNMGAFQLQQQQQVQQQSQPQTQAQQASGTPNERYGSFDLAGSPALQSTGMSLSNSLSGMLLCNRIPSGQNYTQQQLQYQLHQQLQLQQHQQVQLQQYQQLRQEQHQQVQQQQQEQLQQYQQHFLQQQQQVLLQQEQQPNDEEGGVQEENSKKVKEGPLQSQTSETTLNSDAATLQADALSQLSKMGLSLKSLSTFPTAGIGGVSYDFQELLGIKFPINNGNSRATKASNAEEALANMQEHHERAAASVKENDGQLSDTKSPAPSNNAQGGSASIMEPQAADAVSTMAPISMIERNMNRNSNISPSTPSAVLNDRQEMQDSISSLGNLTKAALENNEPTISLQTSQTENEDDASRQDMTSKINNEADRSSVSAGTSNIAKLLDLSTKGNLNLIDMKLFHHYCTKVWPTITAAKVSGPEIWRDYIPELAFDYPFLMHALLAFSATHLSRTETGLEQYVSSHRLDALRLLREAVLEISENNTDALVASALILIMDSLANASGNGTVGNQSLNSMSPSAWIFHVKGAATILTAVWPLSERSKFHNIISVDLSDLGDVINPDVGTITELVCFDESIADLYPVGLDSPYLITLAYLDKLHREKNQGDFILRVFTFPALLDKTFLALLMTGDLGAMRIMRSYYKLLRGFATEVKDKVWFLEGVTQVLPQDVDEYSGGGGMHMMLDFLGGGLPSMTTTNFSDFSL
# Assay: PBM E-score (8-mer binding enrichment) (E-score (-0.5 to 0.5)); higher = stronger / more preferred TF binding; most listed sequences are background and not binding sites
# Conditions: protein concentration: 200 nM; construct: GST-full length
# Summary of the method: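 Universal all-10-mer Agilent arrays, fresh or stripped once, were converted to double-stranded form by primer extension. GST-tagged yeast transcription factors from PURExpress in vitro transcription/translation, full-length or DNA-binding domain only, were applied at about 100-200 nM and detected with fluorescent anti-GST. After masliner normalisation, the Universal PBM Analysis Suite scored each ungapped eight-base word together with its reverse complement by E-score.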
row,Sequence,PBM E-score
1,CAGGCCCA,-0.0949
2,ACGCTGAC,0.0482
3,CTTACGCC,0.0225
4,ATCGGGTA,0.00096
5,TACATCGA,0.038
6,CCAGTTCG,-0.0466
7,AGGAATCC,-0.273
8,ACTCCTTG,-0.0918
9,AAATACGA,0.449
10,ACGCTACC,-0.0535
11,ATTTTATC,0.0665
12,AGAGGCCC,-0.291
13,AGCGATTC,0.181
14,GCCAACCC,-0.246
15,GAGGTTAA,-0.188
16,ATCGTGAC,-0.0435
17,CAATTACC,0.0038
18,ATTCTCGA,0.0918
19,GCTTAGTA,0.00514
20,CCATAGTA,-0.0892
21,AGTGAACG,0.316
22,CTGCTACC,-0.161
23,AACTAAAC,0.227
24,CGCCGGAG,0.113
25,ATCTAAAT,0.0488

row,Sequence,PBM E-score
1,CTTCGGTC,0.0609
2,CTTTCGCA,0.00441
3,CACGAGGC,0.116
4,CGGCAAAA,-0.0987
5,CGGTCGTA,0.442
6,GCAAAAGC,0.0231
7,GGGGTCCA,-0.0568
8,ACGAGGCA,0.408
9,CAAGGTAG,-0.195
10,GCCATCGA,-0.0658
11,CAGGAGGC,-0.265
12,AATGAGCT,-0.163
13,ATCGCAAC,0.0638
14,AATATGCA,-0.0358
15,ATCAGACC,-0.154
16,GATGTAGC,-0.023
17,GGAAGTCC,-0.256
18,CTGATTCA,-0.199
19,CAGTTGGA,-0.0009
20,GACTATCA,-0.0406
21,CGTCGATA,-0.028
22,ATCAAAAC,0.0147
23,AAAGGCTC,0.0968
24,ACCTCTTA,0.203
25,TCTCACAA,-0.0538

row,Sequence,PBM E-score
1,ATGTTAAA,-0.0134
2,CATTGCCC,-0.205
3,ACGGATGG,0.254
4,ACGAGGGC,0.388
5,GCCTCATA,-0.0561
6,AGTAATCC,-0.0662
7,AGGGCGAG,-0.142
8,GAAGAGTC,0.0491
9,CCCTGATA,-0.148
10,CGGTAAAG,0.223
11,CTGGACCC,-0.211
12,ACGATCTA,0.245
13,ACTCAAGC,-0.298
14,GATCGCAC,0.123
15,ACTGGTCG,-0.0543
16,GACAGCAA,-0.127
17,CGACCACC,-0.0258
18,GATGTTTA,0.0725
19,ATAATAGA,-0.0332
20,CCACCACC,-0.0443
21,AATTGAAT,-0.168
22,CTACCACC,-0.134
23,GTGACCCA,-0.193
24,CGTGCACG,0.134
25,ATCCGCGG,-0.0584

row,Sequence,PBM E-score
1,AATAACGA,0.16
2,CGATACCC,0.231
3,AGTGTTCG,0.182
4,AGACAGGC,-0.061
5,AAGGTCCT,-0.0749
6,ATACACGA,0.261
7,AATCGAGT,0.0695
8,CATACATA,0.0825
9,CACATAGA,-0.091
10,ACAGATCA,-0.113
11,GGCGTGGA,-0.294
12,CACTCTCA,-0.103
13,GAAATTAA,0.107
14,CCTTACGA,0.407
15,ATCTCTAA,-0.0535
16,TCATAACA,0.0608
17,ATTTATCC,0.174
18,TAAAATTA,0.0481
19,AGAACCCG,0.0767
20,CAAGCAGG,-0.258
21,ACGGCCAA,0.029
22,CGTCTCGC,0.154
23,AGCAACTC,-0.104
24,AATCTGAA,-0.00542
25,AATCTAGC,-0.246

row,Sequence,PBM E-score
1,GCATCAGC,-0.0568
2,TAGCATCA,0.0711
3,TCCCAAAA,-0.0439
4,CTCCGTTC,0.303
5,CACAGACC,-0.135
6,ACACTCCT,-0.0951
7,AATGATAA,-0.0482
8,AATTCCAC,-0.028
9,GGCCAACC,-0.0824
10,GGCCAGAC,-0.255
11,GGATTAAA,-0.0169
12,GCGGTTGA,-0.0408
13,ATTTAGTA,0.0218
14,TCTGGCCA,-0.105
15,ATGGGGCG,-0.17
16,ATCGACGC,-0.00833
17,GCGATACC,-0.131
18,CCTTAGCA,-0.336
19,AGAACTGA,0.0936
20,AAACGTAT,0.328
21,ACTGGCAA,-0.126
22,ACCGTAAA,0.368
23,AAATGTGG,-0.107
24,GCGCAAAA,-0.0337
25,AGGCGGCC,-0.229

row,Sequence,PBM E-score
1,AGGTCGAC,-0.16
2,ACTTGCAC,-0.185
3,AGACCACC,-0.212
4,AAGTTCAT,-0.183
5,CACGTTGC,-0.0178
6,AGGGAGTA,-0.238
7,GGACCCCC,-0.293
8,GAGCGCGC,0.0196
9,CATCCAAG,-0.331
10,GCTAGTTA,-0.0367
11,CCTTCAAG,-0.223
12,AGCACGAT,0.0297
13,AAGGGTAG,-0.266
14,AGCGCGGA,-0.111
15,CTTTGCCC,-0.114
16,ACGCACTA,0.0867
17,ATGTATGG,-0.176
18,CCCCTGAA,-0.00284
19,AGACCCCC,-0.223
20,ATCTATTA,-0.0156
21,ATTCTATG,-0.243
22,AGGATATG,-0.159
23,ATACCGAA,0.273
24,TGAACAAA,0.135
25,ATACGGGC,0.426

row,Sequence,PBM E-score
1,CAGTCTGG,-0.231
2,GCAGAATA,0.0427
3,CAACTCAC,-0.252
4,ACGAGCCC,0.358
5,AAGTTCCT,0.00251
6,AGTACTAA,-0.0785
7,AAGACACG,0.154
8,AGTCCGTC,-0.208
9,AGATTCCA,-0.0417
10,ATGTTCAA,-0.0877
11,CGTGGTTA,0.0791
12,CCGCCTTA,-0.12
13,CAGGTTGG,-0.0343
14,ACAATGCA,-0.0758
15,CCGCACGG,-0.178
16,CGAAAGCC,-0.156
17,TATATGAA,0.104
18,GAGGTATA,0.144
19,ACGATGCA,0.344
20,ATAGTAGA,-0.0157
21,ACTGTTGA,-0.185
22,AGTATCTG,-0.211
